Results on 31 molecules are retold here after patent US8067379B2, “Sulfur compounds as inhibitors of hepatitis C virus NS3 serine protease” (Schering Corporation, priority 2004, dated 2011).

A value given as a limit tells only on which side of the number the result lay.

In the first experiment the target is Recombinant heterodimeric HCV NS3/NS4A protease (strain 1a) (Hepatitis C virus genotype 1a, UniProt P27958). Kind of experiment: Spectrophotometric assay for HCV serine protease inhibitory activity (chromogenic ester substrates). Format: biochemical. The following applies: Table 3, sulfide compounds; HCV serine protease; read-out: Ki* range. The source says:
Assay for HCV Protease Inhibitory Activity:
Spectrophotometric Assay: Spectrophotometric assay for the HCV serine protease can be performed on the inventive compounds by following the procedure described by R. Zhang et al, Analytical Biochemistry, 270 (1999) 268-275, the disclosure of which is incorporated herein by reference. The assay based on the proteolysis of chromogenic ester substrates is suitable for the continuous monitoring of HCV NS3 protease activity. The substrates are derived from the P side of the NS5A-NS5B junction sequence (Ac-DTEDWX(Nva), where X=A or P) whose C-terminal carboxyl groups are esterified with one of four different chromophoric alcohols (3- or 4-nitrophenol, 7-hydroxy-4-methyl-coumarin, or 4-phenylazophenol).
Protein concentrations are determined by the Biorad dye method using recombinant HCV protease standards previously quantified by amino acid analysis. Prior to assay initiation, the enzyme storage buffer (50 mM sodium phosphate pH 8.0, 300 mM NaCl, 10% glycerol, 0.05% lauryl maltoside and 10 mM DTT) is exchanged for the assay buffer (25 mM MOPS pH 6.5, 300 mM NaCl, 10% glycerol, 0.05% lauryl maltoside, 5 μM EDTA and 5 μM DTT) utilizing a Biorad Bio-Spin P-6 prepacked column.
Protease Assay: HCV protease assays are performed at 30° C. using a 200 μl reaction mix in a 96-well microtiter plate. Assay buffer conditions (25 mM MOPS pH 6.5, 300 mM NaCl, 10% glycerol, 0.05% lauryl maltoside, 5 μM EDTA and 5 μM DTT) are optimized for the NS3/NS4A heterodimer (D. L. Sali et al, ibid.)). […] Fifty μls of prewarmed protease (12 nM, 30° C.) in assay buffer, is then used to initiate the reaction (final volume 200 μl). The plates are monitored over the length of the assay (60 minutes) for change in absorbance at the appropriate wavelength (340 nm for 3-Np and HMC, 370 nm for PAP, and 400 nm for 4-Np) using a Spectromax Plus microtiter plate reader equipped with a monochrometer (acceptable results can be obtained with plate readers that utilize cutoff filters). Proteolytic cleavage of the ester linkage between the Nva and the chromophore is monitored at the appropriate wavelength against a no enzyme blank as a control for non-enzymatic hydrolysis. The evaluation of substrate kinetic parameters is performed over a 30-fold substrate concentration range (˜6-200 μM). Initial velocities are determined using linear regression and kinetic constants are obtained by fitting the data to the Michaelis-Menten equation using non-linear regression analysis (Mac Curve Fit 1.1, K. Raner). Turnover numbers (kcat) are calculated assuming the enzyme is fully active.
Evaluation of Inhibitors and Inactivators: The inhibition constants (Ki) for the competitive inhibitors Ac-D-(D-Gla)-L-l-(Cha)-C-OH (27), Ac-DTEDWA(Nva)-OH and Ac-DTEDVVP(Nva)-OH are determined experimentally at fixed concentrations of enzyme and substrate by plotting vo/vi vs. inhibitor concentration ([l]o) according to the rearranged Michaelis-Menten equation for competitive inhibition kinetics: vo/vi=1+[l]o/(Ki (1+[S]o/Km)), where vo is the uninhibited initial velocity, vi is the initial velocity in the presence of inhibitor at any given inhibitor concentration ([l]o) and [S]o is the substrate concentration used.
As for `CCSCC1(NC(=O)N[C@H](C(=O)N2C[C@H]3[C@@H]([C@H]2C(=O)NC(CC2CC2)C(=O)C(N)=O)C3(C)C)C(C)(C)C)CCCCC1` (stereo partly shown) [Compound 117], the Ki (commonly a measure of affinity in units of concentration, obtained from inhibition or displacement) is under 75 nM.

Still in this experiment, the particulars now being: Table 3, sulfone compounds, rows without Prep. Ex. number; read-out: Ki* (numeric value, unlabelled structures at end of sulfone table, column without head).
Regarding `C#CCCC(NC(=O)[C@@H]1[C@@H]2[C@H](CN1C(=O)[C@@H](NC(=O)NC1(CS(=O)(=O)C(C)(C)C)CCCCC1)C1(C)CCCC1)C2(C)C)C(=O)C(=O)NCC=C` (stereo partly shown), the inhibition constant (Ki) came out at 2.4 nM. The same measure, in the same setting: the value for `C=CCNC(=O)C(=O)C(CC1CCC1)NC(=O)[C@@H]1[C@@H]2[C@H](CN1C(=O)[C@@H](NC(=O)NC1(CS(=O)(=O)C(C)(C)C)CCCCC1)C1(C)CCCC1)C2(C)C` (stereo partly shown) was 34 nM.

The same experiment, now with this note: Table 3, sulfone compounds; HCV serine protease; read-out: Ki* range.
For the molecule `C#CCCC(NC(=O)[C@@H]1[C@@H]2[C@H](CN1C(=O)[C@@H](NC(=O)NC1(CCS(=O)(=O)C(C)(C)C)CCCCC1)C(C)(C)C)C2(C)C)C(=O)C(=O)NCC=C` (stereo partly shown) [Compound 268], the inhibition constant (Ki) fell in the range of 75 to 250 nM.

Turning to `C#CCCNC(=O)C(=O)C(CCCC)NC(=O)[C@@H]1[C@@H]2[C@H](CN1C(=O)[C@@H](NC(=O)NC1(CS(=O)(=O)c3ccccc3)CCCCC1)C(C)(C)C)C2(C)C` (stereo partly shown) [Compound 173], the Ki is under 75 nM. The same measure, in the same setting: as for `C#CCCNC(=O)C(=O)C(CCC#C)NC(=O)[C@@H]1[C@@H]2[C@H](CN1C(=O)[C@@H](NC(=O)NC1(CS(=O)(=O)Cc3ccccc3)CCCCC1)C(C)(C)C)C2(C)C` (stereo partly shown) [Compound 192], the figure is under 75 nM; as for `CC(C)(C)[C@H](NC(=O)NC1(CS(=O)(=O)c2ccccc2)CCCCC1)C(=O)N1C[C@H]2[C@@H]([C@H]1C(=O)NC(CC1CCC1)C(=O)C(N)=O)C2(C)C` (stereo partly shown) [Compound 214], under 75 nM; as for `CCCCC(NC(=O)[C@@H]1[C@@H]2[C@H](CN1C(=O)[C@@H](NC(=O)NC1(CS(=O)(=O)C(C)(C)C)CCCCC1)C(C)(C)C)C2(C)C)C(=O)C(N)=O` (stereo partly shown) [Compound 263], under 75 nM.

For the molecule `C#CCCC(NC(=O)[C@@H]1[C@@H]2[C@H](CN1C(=O)[C@@H](NC(=O)NC1(CS(=O)(=O)c3ccccc3)CCCCC1)C(C)(C)C)C2(C)C)C(=O)C(=O)NCC#C` (stereo partly shown) [Compound 179], the Ki is under 75 nM.

As for `CC(C)[C@@H](CS(=O)(=O)C(C)(C)C)NC(=O)N[C@H](C(=O)N1C[C@H]2[C@@H]([C@H]1C(=O)NC(CC1CCC1)C(=O)C(N)=O)C2(C)C)C(C)(C)C` (stereo partly shown) [Compound 165], the inhibition constant (Ki) was under 75 nM.

The experiment is the same for the next values; noted with them: Table 3A; cells that print a number instead of a class symbol; read-out: Ki* Range.
Consider `CCCC[C@H](NC(=O)[C@@H]1[C@@H]2[C@H](CN1C(=O)[C@@H](NC(=O)NC1(CS(=O)(=O)C(C)(C)C)CCCCC1)C(C)(C)C)C2(C)C)C(=O)C(=O)NC1CC1` [Compound 843], for which the inhibition constant Ki stood at 11 nM.

The same experiment, now with this note: Table 3A; class symbols; read-out: Ki* Range.
Take `C=CCNC(=O)C(=O)[C@H](CC1CC1)NC(=O)[C@@H]1[C@@H]2[C@H](CN1C(=O)[C@@H](NC(=O)NC1(C3CCCS3(=O)=O)CCCCC1)C(C)(C)C)C2(Cl)Cl` (stereo partly shown) [Compound 791]: the Ki is under 75 nM. Same read-out and setting: as for `CCCC[C@H](NC(=O)[C@@H]1[C@@H]2[C@H](CN1C(=O)[C@@H](NC(=O)NC1(C3CCCS3(=O)=O)CCCCC1)C(C)(C)C)C2(Cl)Cl)C(=O)C(=O)NC1CC1` (stereo partly shown) [Compound 788], the figure is under 75 nM; as for `CCNC(=O)C(=O)C(CCC1CC1)NC(=O)[C@@H]1[C@@H]2[C@H](CN1C(=O)[C@@H](NC(=O)NC1(CS(=O)(=O)C(C)(C)C)CCCCC1)C1(C)CCCCC1)C2(C)C` (stereo partly shown) [Compound 479], under 75 nM; as for `C=CCNC(=O)C(=O)C(CCC(C)C)NC(=O)[C@@H]1[C@@H]2[C@H](CN1C(=O)[C@@H](NC(=O)NC1(CS(=O)(=O)C(C)(C)C)CCCCC1)C1(C)CCCCC1)C2(C)C` (stereo partly shown) [Compound 580], under 75 nM. As for `C=CCNC(=O)C(=O)C(CCC1CC1)NC(=O)[C@@H]1[C@@H]2[C@H](CN1C(=O)[C@@H](NC(=O)NC1(CS(=O)(=O)C(C)(C)C)CCCCC1)C1CCCCC1)C2(C)C` (stereo partly shown) [Compound 553], the Ki was under 75 nM. With `C=CCNC(=O)C(=O)C(CCC1CC1)NC(=O)[C@@H]1[C@@H]2[C@H](CN1C(=O)[C@@H](NC(=O)NC1(CS(=O)(=O)C(C)(C)CO)CCCCC1)C1(C)CCCCC1)C2(C)C` (stereo partly shown) [Compound 648], the Ki is under 75 nM.

Regarding `CC1(C)[C@@H]2[C@@H](C(=O)NC(CC3CCC3)C(=O)C(=O)NC3CC3)N(C(=O)[C@@H](NC(=O)NC3(CS(=O)(=O)C(C)(C)C)CCCCC3)C3Cc4ccccc4C3)C[C@@H]21` (stereo partly shown) [Compound 483], the Ki was in the range of 75 to 250 nM. On the same count and under the same terms, the value for `C=CCNC(=O)C(=O)[C@H](CCCC)NC(=O)[C@@H]1[C@@H]2[C@H](CN1C(=O)[C@@H](NC(=O)NC1(CS(=O)(=O)C(C)(C)COCC)CCCCC1)C(C)(C)C)C2(C)C` [Compound 851] was under 75 nM.

Regarding `C=CCNC(=O)C(=O)[C@H](CCC)NC(=O)[C@@H]1[C@@H]2[C@H](CN1C(=O)[C@@H](NC(=O)NC1(C3COCCS3(=O)=O)CCCCC1)C(C)(C)C)C2(C)C` (stereo partly shown) [Compound 883-bf], the Ki was under 75 nM. On the same count and under the same terms, as for `CCCNC(=O)C(=O)[C@H](CCC)NC(=O)[C@@H]1[C@@H]2[C@H](CN1C(=O)[C@@H](NC(=O)NC1(C3CCCS3(=O)=O)CCOCC1)C(C)(C)C)C2(C)C` (stereo partly shown) [Compound 883-fb], the figure is under 75 nM; as for `CCCC[C@H](NC(=O)[C@@H]1[C@@H]2[C@H](CN1C(=O)[C@@H](NC(=O)NC1([C@@H]3CCCS3(=O)=O)CCCCC1)C(C)(C)C)C2(C)C)C(=O)C(=O)NCC` [Compound 883-cl], under 75 nM.

In the case of `CCCC[C@H](NC(=O)[C@@H]1[C@@H]2[C@H](CN1C(=O)[C@@H](NC(=O)NC1(CS(=O)(=O)C(C)(C)CF)CCCCC1)C1(C)CCCCC1)C2(C)C)C(=O)C(=O)NC1CC1` [Compound 879], the Ki is under 75 nM. On the same count and under the same terms, as for `C#CCCC(NC(=O)[C@@H]1[C@@H]2[C@H](CN1C(=O)[C@@H](NC(=O)N[C@]1(CS(=O)(=O)C(C)(C)C)C[C@H]3C[C@H]3C1)C1(C)CCCCC1)C2(C)C)C(=O)C(=O)NCC=C` (stereo partly shown) [Compound 469], the figure is under 75 nM; as for `C=CCNC(=O)C(=O)C(CCCC)NC(=O)[C@@H]1[C@@H]2[C@H](CN1C(=O)[C@@H](NC(=O)NC1(C3CCCS3(=O)=O)CCCCC1)C1(C)CCCCC1)C2(C)C` (stereo partly shown) [Compound 610], under 75 nM. On the same count and under the same terms, as for `CCCC(NC(=O)[C@@H]1[C@@H]2[C@H](CN1C(=O)[C@@H](NC(=O)NC1(CS(=O)(=O)C(C)(C)C)CCCCC1)C1(C)CCCCC1)C2(C)C)C(=O)C(=O)NCc1cccs1` (stereo partly shown) [Compound 493], the figure is under 75 nM; as for `C=CCNC(=O)C(=O)[C@H](CCC1CC1)NC(=O)[C@@H]1[C@@H]2[C@H](CN1C(=O)[C@@H](NC(=O)NC1(CS(=O)(=O)C(C)(C)CO)CCCCC1)C1(C)CCCCC1)C2(C)C` [Compound 852], under 75 nM; as for `CC(C)(C)[C@H](NC(=O)NC1(CS(=O)(=O)C(C)(C)C)CCCCC1)C(=O)N1C[C@H]2[C@@H]([C@H]1C(=O)NC(CCCCF)C(=O)C(=O)NC1CC1)C2(C)C` (stereo partly shown) [Compound 480], under 75 nM. With `CCC[C@H](NC(=O)[C@@H]1[C@@H]2[C@H](CN1C(=O)[C@@H](NC(=O)NC1(CS(=O)(=O)C3(C)CCOCC3)CCCCC1)C(C)(C)C)C2(C)C)C(=O)C(=O)NC1CC1` [Compound 832], the Ki was under 75 nM.

The experiment is the same for the next values; noted with them: Table 4A; read-out: Ki* Range.
Consider `C#CCCC(NC(=O)[C@@H]1[C@@H]2[C@H](CN1C(=O)[C@@H](NC(=O)N[C@@H]([C@@H]1CCN(Cc3ccc(OC)cc3)S1(=O)=O)C(C)(C)C)C1(C)CCCCC1)C2(C)C)C(=O)C(=O)NCC=C` (stereo partly shown) [Compound 1121], for which the Ki was over 250 nM. Same read-out and setting: as for `C=CCNC(=O)C(=O)C(CCC)NC(=O)[C@@H]1[C@@H]2[C@H](CN1C(=O)[C@@H](NC(=O)N[C@H]([C@H]1CCN(Cc3ccc(OC)cc3)S1(=O)=O)C(C)(C)C)C1(C)CCCCC1)C2(C)C` (stereo partly shown) [Compound 1113], the figure is over 250 nM.
